In the supplement of paper PMC8728848:
This is one part of the list.

Tests used:
Experiment in all cases: glycan array binding signal (z-score within array); higher = stronger binding
Settings in all cases: glycan notation: IUPAC condensed, linker removed
[1] = biological target: GlcA(b1-3)Gal
Method in brief: (§1)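 Arrays were curated from the Consortium for Functional Glycomics database, 3228 in total, and kept only where the protein sequence was available. Binding is expressed as a within-array Z-score. This score was averaged across arrays of the same protein sequence at different concentrations or buffers and across linkers, and negative values can be read as non-binding.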

[2] = biological target: GlcA(b1-3)GlcNAc
Method in brief: as §1

[3] = biological target: GlcA(b1-6)Gal
Method in brief: as §1

[4] = biological target: GlcA3S(b1-3)Gal(b1-4)GlcNAc(b1-2)Man
Method in brief: as §1

[5] = biological target: GlcA3S(b1-3)Gal(b1-4)GlcNAc(b1-3)Gal(b1-4)Glc
Method in brief: as §1

[6] = biological target: GlcNAc(a1-3)Gal(b1-4)GlcNAc
Method in brief: as §1

[7] = biological target: GlcNAc(a1-4)Gal(b1-3)GlcNAc
Method in brief: as §1

[8] = biological target: GlcNAc(a1-4)Gal(b1-4)GalNAc
Method in brief: as §1

[9] = biological target: GlcNAc(a1-4)Gal(b1-4)GlcNAc
Method in brief: as §1

[10] = biological target: GlcNAc(a1-4)Gal(b1-4)GlcNAc(b1-3)Gal(b1-4)Glc
Method in brief: as §1

[11] = biological target: GlcNAc(a1-4)Gal(b1-4)GlcNAc(b1-3)Gal(b1-4)GlcNAc
Method in brief: as §1

[12] = biological target: GlcNAc(a1-4)Gal(b1-4)GlcNAc(b1-3)Gal(b1-4)GlcNAc(b1-3)Gal(b1-4)GlcNAc
Method in brief: as §1

[13] = biological target: GlcNAc(a1-4)Gal(b1-4)GlcNAc(b1-3)Gal(b1-4)[Fuc(a1-3)]GlcNAc(b1-3)Gal(b1-4)[Fuc(a1-3)]GlcNAc
Method in brief: as §1

[14] = biological target: GlcNAc(a1-6)Gal(b1-4)GlcNAc
Method in brief: as §1

[15] = biological target: GlcNAc(b1-2)Gal(b1-3)GalNAc
Method in brief: as §1

[16] = biological target: GlcNAc(b1-2)Gal(b1-3)GlcNAc
Method in brief: as §1

[17] = biological target: GlcNAc(b1-2)Man(a1-3)[GlcNAc(b1-2)Man(a1-6)]Man(b1-4)GlcNAc(b1-4)GlcNAc
Method in brief: as §1

[18] = biological target: GlcNAc(b1-2)Man(a1-3)[GlcNAc(b1-2)Man(a1-6)]Man(b1-4)GlcNAc(b1-4)[Fuc(a1-6)]GlcNAc
Method in brief: as §1

[19] = biological target: GlcNAc(b1-2)Man(a1-3)[GlcNAc(b1-4)][GlcNAc(b1-2)Man(a1-6)]Man(b1-4)GlcNAc(b1-4)GlcNAc
Method in brief: as §1

[20] = biological target: GlcNAc(b1-2)Man(a1-3)[GlcNAc(b1-4)][GlcNAc(b1-2)Man(a1-6)]Man(b1-4)GlcNAc(b1-4)[Fuc(a1-6)]GlcNAc
Method in brief: as §1

[21] = biological target: GlcNAc(b1-2)[GlcNAc(b1-4)]Man(a1-3)[GlcNAc(b1-2)Man(a1-6)]Man(b1-4)GlcNAc(b1-4)GlcNAc
Method in brief: as §1

[22] = biological target: GlcNAc(b1-2)[GlcNAc(b1-4)]Man(a1-3)[GlcNAc(b1-4)][GlcNAc(b1-2)Man(a1-6)]Man(b1-4)GlcNAc(b1-4)GlcNAc
Method in brief: as §1

[23] = biological target: GlcNAc(b1-2)[GlcNAc(b1-4)]Man(a1-3)[GlcNAc(b1-4)][GlcNAc(b1-2)[GlcNAc(b1-6)]Man(a1-6)]Man(b1-4)GlcNAc(b1-4)GlcNAc
Method in brief: as §1

[24] = biological target: GlcNAc(b1-2)[GlcNAc(b1-4)]Man(a1-3)[GlcNAc(b1-4)][GlcNAc(b1-2)[GlcNAc(b1-6)]Man(a1-6)]Man(b1-4)GlcNAc(b1-4)[Fuc(a1-6)]GlcNAc
Method in brief: as §1

[25] = biological target: GlcNAc(b1-2)[GlcNAc(b1-6)]Man(a1-6)[GlcNAc(b1-2)Man(a1-3)]Man(b1-4)GlcNAc(b1-4)GlcNAc
Method in brief: as §1

[26] = biological target: GlcNAc(b1-2)[GlcNAc(b1-6)]Man(a1-6)[GlcNAc(b1-2)Man(a1-3)]Man(b1-4)GlcNAc(b1-4)[Fuc(a1-6)]GlcNAc
Method in brief: as §1

[27] = biological target: GlcNAc(b1-2)[GlcNAc(b1-6)]Man(a1-6)[GlcNAc(b1-4)][GlcNAc(b1-2)Man(a1-3)]Man(b1-4)GlcNAc(b1-4)GlcNAc
Method in brief: as §1

[28] = biological target: GlcNAc(b1-3)Fuc
Method in brief: as §1

[29] = biological target: GlcNAc(b1-3)Gal
Method in brief: as §1

[30] = biological target: GlcNAc(b1-3)Gal(b1-3)GalNAc
Method in brief: as §1

[31] = biological target: GlcNAc(b1-3)Gal(b1-4)Glc
Method in brief: as §1

[32] = biological target: GlcNAc(b1-3)Gal(b1-4)GlcNAc
Method in brief: as §1

[33] = biological target: GlcNAc(b1-3)Gal(b1-4)GlcNAc(b1-2)Man(a1-3)[GlcNAc(b1-3)Gal(b1-4)GlcNAc(b1-2)Man(a1-6)]Man(b1-4)GlcNAc(b1-4)GlcNAc
Method in brief: as §1

[34] = biological target: GlcNAc(b1-3)Gal(b1-4)GlcNAc(b1-2)Man(a1-3)[GlcNAc(b1-3)Gal(b1-4)GlcNAc(b1-2)Man(a1-6)]Man(b1-4)GlcNAc(b1-4)[Fuc(a1-6)]GlcNAc
Method in brief: as §1

[35] = biological target: GlcNAc(b1-3)Gal(b1-4)GlcNAc(b1-2)[GlcNAc(b1-3)Gal(b1-4)GlcNAc(b1-6)]Man(a1-6)[GlcNAc(b1-3)Gal(b1-4)GlcNAc(b1-2)Man(a1-3)]Man(b1-4)GlcNAc(b1-4)GlcNAc
Method in brief: as §1

[36] = biological target: GlcNAc(b1-3)Gal(b1-4)GlcNAc(b1-3)Gal(b1-4)GlcNAc
Method in brief: as §1

[37] = biological target: GlcNAc(b1-3)Gal(b1-4)GlcNAc(b1-3)Gal(b1-4)GlcNAc(b1-2)Man(a1-3)[GlcNAc(b1-3)Gal(b1-4)GlcNAc(b1-3)Gal(b1-4)GlcNAc(b1-2)Man(a1-6)]Man(b1-4)GlcNAc(b1-4)GlcNAc
Method in brief: as §1

[38] = biological target: GlcNAc(b1-3)Gal(b1-4)GlcNAc(b1-3)Gal(b1-4)GlcNAc(b1-2)Man(a1-3)[GlcNAc(b1-3)Gal(b1-4)GlcNAc(b1-3)Gal(b1-4)GlcNAc(b1-2)Man(a1-6)]Man(b1-4)GlcNAc(b1-4)[Fuc(a1-6)]GlcNAc
Method in brief: as §1

[39] = biological target: GlcNAc(b1-3)Gal(b1-4)GlcNAc(b1-3)Gal(b1-4)GlcNAc(b1-2)[GlcNAc(b1-3)Gal(b1-4)GlcNAc(b1-3)Gal(b1-4)GlcNAc(b1-6)]Man(a1-6)[GlcNAc(b1-3)Gal(b1-4)GlcNAc(b1-3)Gal(b1-4)GlcNAc(b1-2)Man(a1-3)]Man(b1-4)GlcNAc(b1-4)[Fuc(a1-6)]GlcNAc
Method in brief: as §1

[40] = biological target: GlcNAc(b1-3)Gal(b1-4)GlcNAc(b1-3)Gal(b1-4)GlcNAc(b1-3)Gal(b1-4)GlcNAc(b1-2)Man(a1-3)[GlcNAc(b1-3)Gal(b1-4)GlcNAc(b1-3)Gal(b1-4)GlcNAc(b1-3)Gal(b1-4)GlcNAc(b1-2)Man(a1-6)]Man(b1-4)GlcNAc(b1-4)GlcNAc
Method in brief: as §1

[41] = biological target: GlcNAc(b1-3)Gal(b1-4)GlcNAc(b1-3)Gal(b1-4)GlcNAc(b1-3)Gal(b1-4)GlcNAc(b1-2)Man(a1-3)[GlcNAc(b1-3)Gal(b1-4)GlcNAc(b1-3)Gal(b1-4)GlcNAc(b1-3)Gal(b1-4)GlcNAc(b1-2)Man(a1-6)]Man(b1-4)GlcNAc(b1-4)[Fuc(a1-6)]GlcNAc
Method in brief: as §1

[42] = biological target: GlcNAc(b1-3)Gal(b1-4)GlcNAc(b1-3)Gal(b1-4)GlcNAc(b1-3)Gal(b1-4)GlcNAc(b1-2)[GlcNAc(b1-3)Gal(b1-4)GlcNAc(b1-3)Gal(b1-4)GlcNAc(b1-3)Gal(b1-4)GlcNAc(b1-6)]Man(a1-6)[GlcNAc(b1-3)Gal(b1-4)GlcNAc(b1-3)Gal(b1-4)GlcNAc(b1-3)Gal(b1-4)GlcNAc(b1-2)Man(a1-3)]Man(b1-4)GlcNAc(b1-4)[Fuc(a1-6)]GlcNAc
Method in brief: as §1

[43] = biological target: GlcNAc(b1-3)Gal(b1-4)GlcNAc(b1-3)Gal(b1-4)GlcNAc(b1-3)Gal(b1-4)GlcNAc(b1-3)Gal(b1-4)GlcNAc(b1-2)Man(a1-3)[GlcNAc(b1-3)Gal(b1-4)GlcNAc(b1-3)Gal(b1-4)GlcNAc(b1-3)Gal(b1-4)GlcNAc(b1-3)Gal(b1-4)GlcNAc(b1-2)Man(a1-6)]Man(b1-4)GlcNAc(b1-4)GlcNAc
Method in brief: as §1

[44] = biological target: GlcNAc(b1-3)Gal(b1-4)GlcNAc(b1-3)Gal(b1-4)GlcNAc(b1-3)Gal(b1-4)GlcNAc(b1-3)Gal(b1-4)GlcNAc(b1-2)Man(a1-3)[GlcNAc(b1-3)Gal(b1-4)GlcNAc(b1-3)Gal(b1-4)GlcNAc(b1-3)Gal(b1-4)GlcNAc(b1-3)Gal(b1-4)GlcNAc(b1-2)Man(a1-6)]Man(b1-4)GlcNAc(b1-4)[Fuc(a1-6)]GlcNAc
Method in brief: as §1

[45] = biological target: GlcNAc(b1-3)Gal(b1-4)GlcNAc(b1-3)Gal(b1-4)GlcNAc(b1-3)Gal(b1-4)GlcNAc(b1-3)Gal(b1-4)GlcNAc(b1-2)[GlcNAc(b1-3)Gal(b1-4)GlcNAc(b1-3)Gal(b1-4)GlcNAc(b1-3)Gal(b1-4)GlcNAc(b1-3)Gal(b1-4)GlcNAc(b1-6)]Man(a1-6)[GlcNAc(b1-3)Gal(b1-4)GlcNAc(b1-3)Gal(b1-4)GlcNAc(b1-3)Gal(b1-4)GlcNAc(b1-3)Gal(b1-4)GlcNAc(b1-2)Man(a1-3)]Man(b1-4)GlcNAc(b1-4)[Fuc(a1-6)]GlcNAc
Method in brief: as §1

B1: EEA (Euonymus europaeus) (protein)
chain: MASTIIATGPTYRVYCRAAPNYNMIVGKGVAFLAPIDETNELQYWYKDDTYSYIKDEAGLPAFSLVNKATGLTLKHSNHHPVPVKLVTYNPNVVDESVLWSQADDRGDGYSAIRSLTNPASHLEAAPLNDWSYNGAIIMGGVWIDAYNQQWKIEPHTG
- glycan array binding signal (z-score) [1]: -0.19
- glycan array binding signal (z-score) [2]: -0.185
- glycan array binding signal (z-score) [3]: -0.277
- glycan array binding signal (z-score) [4]: -0.194
- glycan array binding signal (z-score) [5]: -0.179
- glycan array binding signal (z-score) [6]: -0.151
- glycan array binding signal (z-score) [7]: -0.169
- glycan array binding signal (z-score) [8]: -0.127
- glycan array binding signal (z-score) [9]: -0.158
- glycan array binding signal (z-score) [10]: -0.238
- glycan array binding signal (z-score) [11]: -0.197
- glycan array binding signal (z-score) [12]: -0.24
- glycan array binding signal (z-score) [13]: -0.079
- glycan array binding signal (z-score) [14]: -0.245
- glycan array binding signal (z-score) [15]: -0.138
- glycan array binding signal (z-score) [16]: -0.376
- glycan array binding signal (z-score) [17]: -0.152
- glycan array binding signal (z-score) [18]: -0.138
- glycan array binding signal (z-score) [19]: -0.242
- glycan array binding signal (z-score) [20]: -0.234
- glycan array binding signal (z-score) [21]: -0.153
- glycan array binding signal (z-score) [22]: -0.19
- glycan array binding signal (z-score) [23]: -0.24
- glycan array binding signal (z-score) [24]: -0.169
- glycan array binding signal (z-score) [25]: -0.146
- glycan array binding signal (z-score) [26]: -0.204
- glycan array binding signal (z-score) [27]: -0.205
- glycan array binding signal (z-score) [28]: -0.16
- glycan array binding signal (z-score) [29]: -0.213
- glycan array binding signal (z-score) [30]: -0.1
- glycan array binding signal (z-score) [31]: -0.228
- glycan array binding signal (z-score) [32]: -0.16
- glycan array binding signal (z-score) [33]: -0.158
- glycan array binding signal (z-score) [34]: -0.195
- glycan array binding signal (z-score) [35]: 0.038
- glycan array binding signal (z-score) [36]: -0.226
- glycan array binding signal (z-score) [37]: 0.225
- glycan array binding signal (z-score) [38]: -0.109
- glycan array binding signal (z-score) [39]: 0.07
- glycan array binding signal (z-score) [40]: -0.034
- glycan array binding signal (z-score) [41]: -0.059
- glycan array binding signal (z-score) [42]: 0.131
- glycan array binding signal (z-score) [43]: -0.156
- glycan array binding signal (z-score) [44]: -0.221
- glycan array binding signal (z-score) [45]: -0.012
